# Results reported in PMC5892938.
# This is one part of the list. The exact form of the protein is not confirmed.
# Target: GST-SBP-ILF3 (Homo sapiens) (UniProt Q12906)
# Assay: targeted RNA Bind-n-Seq
# Settings: RBNS binding buffer: 25 mM Tris pH 7.5, 150 mM KCl, 3 mM MgCl2, 0.1% Tween, 0.5 mg/mL BSA, 1 mM DTT; 27 nM protein, 750 pM RNA pool; temperature not stated; high values mean tight binding; sequences stand for … in GGGUAAAAGCGAGGUGAA…CGGGACAAGUAUUAUGGG
row,Sequence,binding signal (log2 fold change)
1,UUUUUUUUUUGAGAUCGUGCCGAUCUCCAG [tttttgagapaired],0.681
2,UUUUUUUUUUGAGAGGGACUCCCUCUUCUG [tttttgagapaired],0.338
3,UUUUUUUUUUGAGAGCGGCGCGCUCUCCAG [tttttgagapaired],0.51
4,GUGUGUUGUGUUGGCACCUAACACAACACG [gtspaired],-0.257
5,GGUGGUUGUGUUGGAGUCUAACACAGCUAC [gtspaired],-0.389
6,GGUGGUUGUGUUGGAGCCUAACACAGCCGC [gtspaired],-0.407
7,GGUGGUGGUGUUGGCACCUAACACCAUCGC [gtspaired],-0.605
8,UUUUUUUUUUGAGACGGCAUCCGUCUCCAG [tttttgagapaired],0.599
9,UUUUUUUUUUGAGAGGGAAACCCUUUCCGG [tttttgagapaired],0.0673
10,GUGGUGUGUGUUGGACCCUAACACACAUCA [gtspaired],-0.536
11,UUUUUUUUUUGAGAUCGAUGCGAUCUUCUG [tttttgagapaired],0.379
12,UUUUUUUUUUGAGAGGGAGUCCCUCUCCUG [tttttgagapaired],0.595
13,UUUUUUUUUUGAGACCGGAACGGUCUCCAG [tttttgagapaired],0.333
14,UUUUUUUUUUGAGAUGGGGGCUAUCUCCUG [tttttgagapaired],0.745
15,GUGUGUUGUGUUGGUACCUAACACAGCGCA [gtspaired],-0.792
16,GUGGUGUGUGUUGGAGCCUAACACACAUCA [gtspaired],-0.313
17,UUUUUUUUUUGAGACUGGGCCAGUCUCCGG [tttttgagapaired],0.57
18,GGUGUUGGUGUUGGCCUCUAACACCGACGC [gtspaired],-0.271
19,UUUUUUUUUUGAGACUGCGUCAGUCUUCUG [tttttgagapaired],0.614
20,UUUUUUUUUUGAGACCGGAUCGGUCUUCUA [tttttgagapaired],0.254
21,UUUUUUUUUUGAGAGCGAUACGUUCUUCUA [tttttgagapaired],0.359
22,UUUUUUUUUUGAGACUGCUCCAGUCUCCUG [tttttgagapaired],0.993

row,Sequence,binding signal (log2 fold change)
1,UUUUUUUUUUGAGAACGGAUCGUUCUUCUA [tttttgagapaired],0.0338
2,UUUUUUUUUUGAGAGCGAAUCGUUCUCCAG [tttttgagapaired],0.133
3,UUUUUUUUUUGAGACUGUAUCAGUUUCCUA [tttttgagapaired],0.285
4,UUUUUUUUUUGAGAUCGGAGCGAUCUUCUG [tttttgagapaired],0.349
5,GUUGGUGGUGUUGGUGUCUAACACCGCCAG [gtspaired],-0.556
6,GUGUUGUGUGUUGGACUCUAACACACAGCA [gtspaired],-0.799
7,UUUUUUUUUUGAGAUGGUUUCCAUUUCCUA [tttttgagapaired],0.275
8,UUCUUCCUUCCUCCGCUGGAGGAGGGGAGA [ctspaired],-0.319
9,GGUGUGUGUGUUGGCGCCUAACACAUACAC [gtspaired],-0.552
10,GUGUGGUGUGUUGGCUUCUAACACACCAUA [gtspaired],-0.473
11,UUUUUUUUUUGAGACGGAGUCUGUCUUCUA [tttttgagapaired],0.124
12,GUGGUUGGUGUUGGUCUCUAACACCAGCCG [gtspaired],-0.546
13,UUUUUUUUUUGAGACGGCAACCGUCUUCUA [tttttgagapaired],0.302
14,UUUUUUUUUUGAGAUGGGAACCAUCUCCAG [tttttgagapaired],0.397
15,UUUUUUUUUUGAGAUGGCGGCCAUCUCCAG [tttttgagapaired],0.677
16,UUUUUUUUUUGAGAGCGGUGCGCUCUCCUA [tttttgagapaired],0.197
17,GUGUGUUGUGUUGGCGCCUAACACAACGCA [gtspaired],-0.0118
18,GUGUGUGGUGUUGGCACCUAACACCAUACA [gtspaired],-0.272
19,GGUGGUGGUGUUGGUACCUAACACCGCUAC [gtspaired],-0.369
20,UUUUUUUUUUGAGAUGGGUGCCAUCUCCUA [tttttgagapaired],0.363
21,UUUUUUUUUUGAGAGCGGGACGCUCUUCUA [tttttgagapaired],-0.036
22,UUUUUUUUUUGAGAGUGAAGCACUCUCCUG [tttttgagapaired],0.212

row,Sequence,binding signal (log2 fold change)
1,UUUUUUUUUUGAGACUGUGGCAGUUUCCUA [tttttgagapaired],0.685
2,UUUUUUUUUUGAGACUGGGGCAGUUUCCUA [tttttgagapaired],0.844
3,UUUUUUUUUUGAGAGCGUAUCGUUCUCCUG [tttttgagapaired],0.364
4,UUUUUUUUUUGAGAGCGAUGCGCUCUCCUA [tttttgagapaired],-0.221
5,GGUGGUUGUGUUGGAAUCUAACACAGCCGC [gtspaired],-0.358
6,UUUUUUUUUUGAGACUGUGACAGUCUCCUA [tttttgagapaired],0.248
7,GGUGGUGGUGUUGGUUCCUAACACCGCUAC [gtspaired],-0.683
8,UUUUUUUUUUGAGAGCGGUCCGUUCUCCGG [tttttgagapaired],0.666
9,GUGUGUGGUGUUGGCGCCUAACACCACGCG [gtspaired],-0.198
10,UUUUUUUUUUGAGAUGGUGACUAUCUCCUG [tttttgagapaired],0.711
11,GGUUGUUGUGUUGGCGUCUAACACAACAGC [gtspaired],-0.588
12,UUUUUUUUUUGAGAUGGCCACCAUCUCCAG [tttttgagapaired],0.765
13,UUUUUUUUUUGAGACGGACACUGUCUCCUG [tttttgagapaired],0.9
14,GGUUGUGGUGUUGGCUUCUAACACCGCGAC [gtspaired],-0.605
15,UUCCUCCUUCCUCCGCCGGAGGGAGGGGGA [ctspaired],-0.333
16,UUUUUUUUUUGAGACUGAACCAGUCUUCUG [tttttgagapaired],0.126
17,GUGUGGUGUGUUGGUACCUAACACAUCGCG [gtspaired],-0.653
18,GGUGUGUGUGUUGGAGUCUAACACAUAUAC [gtspaired],-0.899
19,UUUUUUUUUUGAGAGUGACGCAUUCUCCAG [tttttgagapaired],0.417
20,UUUUUUUUUUGAGAUCGAAUCGAUCUCCAG [tttttgagapaired],0.0273
21,UUUUUUUUUUGAGAUGGUAACCAUCUCCAG [tttttgagapaired],0.0427
22,UUUUUUUUUUGAGAGCGAGUCGCUCUCCUG [tttttgagapaired],0.255
